{
  "source": "PubChem BioAssay AID686970",
  "about": "(National Center for Advancing Translational Sciences (NCATS), 2013)",
  "note": "Hit rate of the full screen: of about 360,000 compounds, about 6,000 (1.7%) were called active. The shares of active, inactive and inconclusive entries below differ from those in the screen. The call rests on the fitted dose curve; in most records, active means well fitted cell-killing curve with a large enough effect; inconclusive means small, poorly fitted or top-dose-only effect, or effect the other way; inactive means flat fitted curve, though single readings scatter. No potency is given beside an inconclusive call; the fits are too rough. Potency means the concentration at half of the fitted maximal effect; tags describe the fitted curve by direction and shape.",
  "data": [
    {"assay": "qHTS for induction of synthetic lethality in tumor cells producing 2HG: qHTS for the HT-1080-NT fibrosarcoma cell line;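 further: NT is the 2HG producing partner of a matched IDH1 knockdown line; nearly all actives have a fitted effect of over 55% in size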;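 on activity, negative = less viability: 0% = DMSO-treated cells and -100% = media-only wells without cells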", "settings": "HT-1080-NT fibrosarcoma viability, CellTiter-Glo ATP luminescence, 48 h; activity, negative = less viability: at 46.1 µM (top of the series)", "summary_of_the_method": "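HT-1080-NT; 750 cells/well; 5% FBS RPMI; 48 h compound, 37 degrees C; CellTiter-Glo luminescence; curve fitting and curve-class assignment.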", "values": [
      {"smiles": "CC(=O)NCC(N)C(=O)c1ccc(Cl)c(Cl)c1", "note": "(stereo not given)", "Potency": "inconclusive [cytotoxic, single point]"},
      {"smiles": "CN1CC[C@@]2(C)c3cc(O)ccc3N(C)[C@@H]12", "Potency": "active: 23.1 µM"},
      {"smiles": "CC(C)CC(NC(=O)CCCNC(=O)CCC(=O)OC1O[C@H]2OC3(C)CC[C@H]4[C@H](C)CCC(C1C)C24OO3)C(=O)O", "note": "(stereo not given in full)", "Potency": "active: 23.1 µM"},
      {"smiles": "CCN(CC)C(=O)c1ccc(NC(=O)c2cn(-c3ccccc3)nc2-c2ccc(OC)cc2)cc1", "Potency": "inactive"},
      {"smiles": "CC1=CC(=C2C(=O)NC(=O)NC2=O)C=C(C(F)(F)F)N1Cc1ccccc1", "Potency": "inconclusive [cytotoxic, single point]"},
      {"smiles": "CCCCC(=O)N/N=C/c1c(O)n(CCCC)c(=S)[nH]c1=O", "Potency": "inconclusive [cytotoxic, full curve]"},
      {"smiles": "CC(=O)C1=C(O)C2(C)c3c(O)c(C)c(O)c(C(C)=O)c3OC2CC1=O", "note": "(stereo not given)", "Potency": "inconclusive [cytotoxic, partial curve]"},
      {"smiles": "CCOC(=O)[C@]12Cc3cc(OC)ccc3[C@H]1N(C1CCCCC1)C(=O)c1cc(OC)ccc12", "Potency": "active: 23.1 µM"},
      {"smiles": "CC(C)(C)c1cc([N+](=O)[O-])cc(C(C)(C)C)c1O", "Potency": "inconclusive [cytotoxic, single point]"},
      {"smiles": "CCOc1ccc(-c2cc(C)[n+](CCc3ccc(OC)c(OC)c3)c(-c3ccc(OCC)cc3)c2)cc1", "Potency": "active: 20.6 µM"},
      {"smiles": "CC1C(OC(=O)CCC(=O)NC(C)(C)CO)O[C@H]2OC3(C)CC[C@H]4[C@H](C)CCC1C24OO3", "note": "(stereo not given in full)", "Potency": "inconclusive [cytotoxic, partial curve, poor fit]"},
      {"smiles": "CCCOc1ccccc1C1SCC(=O)Nc2c1c(=O)[nH]n2C(C)CCC", "note": "(stereo not given)", "Potency": "inactive"},
      {"smiles": "O=C1NC(=O)C2(Cc3ccccc3N3CCCC32)C(=O)N1c1ccc(Cl)cc1", "note": "(stereo not given)", "Potency": "inconclusive [cytotoxic, single point]"},
      {"smiles": "CCOC(=O)C1C(=O)N(C)C2(C)CC1c1cc(OC)ccc1O2", "note": "(stereo not given)", "Potency": "inactive"},
      {"smiles": "COc1cc2c(ccc3c4cc(OC)c(OC)cc4c[n+](C)c23)cc1O", "Potency": "inactive"},
      {"smiles": "COC(=O)C1=C(c2ccc(OCc3ccccc3)cc2)C[C@@H]2CC[C@H]1N2C(=O)NC1CCN(Cc2ccccc2)CC1", "Potency": "inconclusive [cytotoxic, single point]"},
      {"smiles": "CCCCCCCCCCCCn1ccc(=N)cc1", "Potency": "active: 2.59 µM"},
      {"smiles": "CCOC(=O)[C@]12Cc3ccc(C)cc3[C@H]1N(C1CCCCC1)C(=O)c1ccccc12", "Potency": "active: 8.2 µM"},
      {"smiles": "Oc1ccc2c3c1O[C@H]1c4oc5ccccc5c4C[C@@]4(O)[C@@H](C2)N(CC2CC2)CC[C@]314", "Potency": "inconclusive [cytotoxic, single point]"},
      {"smiles": "COC(=O)C1=C(c2ccccc2OCc2ccccc2)C[C@@H]2CC[C@H]1N2C(=O)NCCc1ccc(F)cc1", "Potency": "inconclusive [cytotoxic, single point]"},
      {"smiles": "Cn1nc(-c2ccc(OCC(=O)N3CCN(Cc4ccccc4)CC3)cc2)c2ccccc2c1=O", "Potency": "inactive"},
      {"smiles": "CN1CCN(Cc2cc(=O)n3ccsc3n2)CC1", "Potency": "inactive"},
      {"smiles": "O=c1[nH]c(=O)n(CCC2=CCCCC2)c(O)c1/C=N/Nc1ccccc1", "activity, negative = less viability": "inconclusive: -28.2% [cytotoxic]"},
      {"smiles": "Cc1ccc(-c2noc(=O)n2CC(=O)Nc2ccc(S(=O)(=O)NC3CC3)cc2)cc1", "Potency": "inconclusive [cytotoxic, single point]"},
      {"smiles": "C=CCN1C(=O)NC(=O)/C(=C\\c2ccc(-c3ccccc3[N+](=O)[O-])o2)C1=O", "Potency": "inconclusive [cytotoxic, single point]"},
      {"smiles": "CN1[C@@H]2CC[C@H]1CC(OC1c3ccccc3CCc3ccccc31)C2", "note": "(stereo not given in full)", "Potency": "active: 16.4 µM"},
      {"smiles": "CC1=C(C)CN2CC(C#N)=C(N)C2C1", "note": "(stereo not given)", "activity, negative = less viability": "inconclusive: 2.34%"},
      {"smiles": "Brc1ccc(Oc2ccc(Br)cc2Br)c(Br)c1", "Potency": "inactive"},
      {"smiles": "Cc1cc(C=C2C(=O)NC(=S)NC2=O)c(C)n1-c1ccc2c(c1)OCO2", "Potency": "inactive"},
      {"smiles": "NS(=O)(=O)c1ccc(CCNc2ccn3nc(-c4cccc(C(F)(F)F)c4)cc3n2)cc1", "Potency": "inconclusive [cytotoxic, single point]"},
      {"smiles": "CCOC(=O)[C@]12Cc3c(cc(OC)c(OC)c3OC)[C@H]1N(C(C)C)C(=O)c1cc(OC)ccc12", "Potency": "active: 14.6 µM"},
      {"smiles": "CN(C)C(=S)SSC(=S)N(C)C", "Potency": "inconclusive [cytotoxic, full curve, poor fit]"},
      {"smiles": "COc1cccc(NP(=O)(Oc2ccccc2)Oc2ccccc2)c1", "Potency": "inconclusive [cytotoxic, partial curve]"},
      {"smiles": "CCOC(=O)[C@]12Cc3cc(Cl)ccc3[C@H]1N(CC(=O)OC)C(=O)c1ccccc12", "Potency": "active: 5.8 µM"},
      {"smiles": "CC(C)C(=O)N1CCC(CN=Cc2c(O)n(C3CCCCC3)c(=O)n(C3CCCCC3)c2=O)CC1", "Potency": "inconclusive [cytotoxic, single point]"},
      {"smiles": "CCOC(=O)[C@]12Cc3cc(C)ccc3[C@H]1N(Cc1ccccc1)C(=O)c1cc(OC)ccc12", "Potency": "inconclusive [cytotoxic, single point]"},
      {"smiles": "N#CC(C#N)=Cc1ccc(C=C(C#N)C#N)cc1", "Potency": "inconclusive [cytotoxic, single point]"},
      {"smiles": "O=P1(c2ccccc2)CC=CC1", "Potency": "inconclusive [rising, partial curve, poor fit]"},
      {"smiles": "COc1cc2c3cc1Oc1c(OC)c(OC)cc4c1[C@H](Cc1ccc(cc1)Oc1cc(ccc1O)C[C@H]3N(C)CC2)N(C)CC4", "Potency": "inconclusive [cytotoxic, single point]"},
      {"smiles": "CCCCn1c(=O)c(C(=O)Nc2ncccc2C)c(O)c2ccccc21", "Potency": "active: 23.1 µM"},
      {"smiles": "Cc1cccc(C)c1-n1nnnc1C(c1cc2ccccc2o1)N1CCC(n2c(=O)[nH]c3ccccc32)CC1", "note": "(stereo not given)", "Potency": "inconclusive [cytotoxic, full curve]"},
      {"smiles": "CCCC(C)C1(CC)C(=O)NC(=Nc2ccc(F)cc2)NC1=O", "note": "(stereo not given)", "Potency": "inconclusive [cytotoxic, single point]"},
      {"smiles": "Cc1ccc(N2C(=O)NC(=O)/C(=C/C=C/c3ccco3)C2=O)cc1", "Potency": "inconclusive [cytotoxic, partial curve]"},
      {"smiles": "CCCCn1nnnc1C(c1cccc2ccccc12)N1CCC2(CC1)C(=O)NCN2c1ccccc1", "note": "(stereo not given)", "Potency": "inconclusive [cytotoxic, single point]"},
      {"smiles": "COC(=O)C1=C(c2c(C)noc2C)C[C@@H]2CC[C@H]1N2C(=O)NC1CCCCC1", "Potency": "inactive"},
      {"smiles": "CCCCn1c(C)c(C(=O)OCC)c2c(CN3CCCC3)c(O)ccc21", "Potency": "inconclusive [cytotoxic, single point]"},
      {"smiles": "CN1CCc2nc3sc(C(=O)NC(C)(C)C)c(N)c3cc2C1", "Potency": "inactive"},
      {"smiles": "Cc1ccc(C(=O)N[C@@H](C)CN2C3=NC[C@H](Cc4ccccc4)N3C[C@H]2Cc2ccc(O)cc2)cc1Br", "Potency": "inconclusive [cytotoxic, single point]"},
      {"smiles": "O=c1[nH]c2ccccc2n1C1CCN(C(c2ccccc2OC(F)(F)F)c2nnnn2Cc2ccccc2)CC1", "note": "(stereo not given)", "Potency": "active: 25.9 µM"},
      {"smiles": "COc1cc2c(c(OC)c1OC)-c1ccc(O)c(=O)cc1[C@@H](NC(C)=O)CC2", "Potency": "active: 6.51 µM"},
      {"smiles": "c1ccc(P(c2ccccc2)c2ccccn2)cc1", "activity, negative = less viability": "inconclusive: -29.9% [cytotoxic]"},
      {"smiles": "O=C(Nc1ccc2nc(-c3cccs3)c(-c3cccs3)nc2c1)NC1CC1", "Potency": "inconclusive [cytotoxic, single point]"},
      {"smiles": "NC(N)=N/N=C/c1c(Cl)cccc1Cl", "Potency": "inconclusive [cytotoxic, partial curve, poor fit]"},
      {"smiles": "O=C1NC(=S)NC(=O)C1=Cc1cccn1-c1ccc(O)cc1", "Potency": "inconclusive [cytotoxic, partial curve]"},
      {"smiles": "C#CCN[C@H](C)Cc1ccccc1", "Potency": "inconclusive [rising, full curve, poor fit]"},
      {"smiles": "COc1ccc(-c2ccc(OC)c(OC)c2OC)cc1", "Potency": "inconclusive [cytotoxic, full curve]"},
      {"smiles": "NCc1cc(=O)[nH]o1", "Potency": "inactive"},
      {"smiles": "COc1ccc(NC2=NCCCS2)cc1OC", "Potency": "inactive"},
      {"smiles": "O=C1C(=O)N(c2ccccc2)P(=O)(N(CCCl)CCCl)N1c1ccccc1", "Potency": "inactive"},
      {"smiles": "CN1C(=O)NC(=O)C(C)(C2=CCCCC2)C1=O", "note": "(stereo not given)", "activity, negative = less viability": "inconclusive: 33.1%"},
      {"smiles": "C[C@@]12N[C@@H](Cc3ccccc31)c1ccccc12", "Potency": "inconclusive [cytotoxic, partial curve]", "activity, negative = less viability": "inconclusive: 12.7%"},
      {"smiles": "CCCN1CCc2cc(O)cc3c2[C@H]1Cc1ccc(O)c(O)c1-3", "Potency": "active: 8.2 µM"},
      {"smiles": "CC(=O)OC1CC(OC2C(O)CC(OC3C(O)CC(OC4CCC5(C)C(CCC6C5CC(O)C5(C)C(C7=CC(=O)OC7)CCC65O)C4)OC3C)OC2C)OC(C)C1OC1OC(CO)C(O)C(O)C1O", "note": "(stereo not given)", "Potency": "active: 0.366 µM"},
      {"smiles": "O=c1[nH]c2ccccc2n1C1CCN(C(c2ccnc3ccccc23)c2nnnn2Cc2ccccc2)CC1", "note": "(stereo not given)", "Potency": "inconclusive [cytotoxic, single point]"},
      {"smiles": "CCC(=NCCCN(CC)CC)c1c(O)n(-c2ccccc2)c(=O)[nH]c1=O", "Potency": "inactive"},
      {"smiles": "Cc1nc2c(=O)n(C)c(=O)nc-2n(C)n1", "Potency": "active: 2.59 µM"},
      {"smiles": "CCn1cc(CN2CCCC(C(=O)c3sccc3C)C2)cn1", "note": "(stereo not given)", "Potency": "inactive"},
      {"smiles": "COc1ccc2[nH]c(C)c(CCNCc3cn(C)c4ccccc34)c2c1", "Potency": "inconclusive [cytotoxic, single point]"},
      {"smiles": "C#CCOCCOCCOCCNc1nc(N2CCN(C(=O)CCCCCCCCCCNC(=O)[C@H]([C@@H](C)CC)n3cc(CCCCN=C(N)N)nn3)CC2)nc(N2CCN(C(=O)CCCCCCCCCCNC(=O)[C@H](CO)n3cc(CCCCCN)nn3)CC2)n1", "Potency": "inconclusive [cytotoxic, single point]"}
    ]}
  ]
}
